Test results published in the supplement of paper PMC8728848.
This is one part of the list.

Assays:
Test in all cases: glycan array binding signal (z-score within array); higher = stronger binding
Conditions in all cases: glycan notation: IUPAC condensed, linker removed
GlcNAc(b1-4)GlcNAc = target: GlcNAc(b1-4)GlcNAc
Method in brief: (§1)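 Glycan array data were curated from 3228 arrays in the Consortium for Functional Glycomics database and kept only where the protein sequence was available. Glycan names were converted to IUPAC-condensed notation, and columns mapping to the same glycan were averaged. The binding signal is a within-array Z-score, averaged across arrays of the same protein sequence at different concentrations or buffers and across linkers. Negative Z-scores can be read as non-binding.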

[1] = target: GlcNAc(b1-4)GlcNAc(b1-4)GlcNAc
Method in brief: as §1

[2] = target: GlcNAc(b1-4)GlcNAc(b1-4)GlcNAc(b1-4)GlcNAc(b1-4)GlcNAc
Method in brief: as §1

[3] = target: GlcNAc(b1-4)GlcNAc(b1-4)GlcNAc(b1-4)GlcNAc(b1-4)GlcNAc(b1-4)GlcNAc
Method in brief: as §1

[4] = target: GlcNAc(b1-4)[GlcNAc(b1-6)]GalNAc
Method in brief: as §1

[5] = target: GlcNAc(b1-6)Gal(b1-4)GlcNAc
Method in brief: as §1

GlcNAc(b1-6)GalNAc = target: GlcNAc(b1-6)GalNAc
Method in brief: as §1

GlcNAc3Prop(b1-4)GlcNAc = target: GlcNAc3Prop(b1-4)GlcNAc
Method in brief: as §1

[6] = target: GlcNAc6S(b1-3)Gal(b1-4)GlcNAc
Method in brief: as §1

Kdn(a2-3)Gal(b1-3)GalNAc = target: Kdn(a2-3)Gal(b1-3)GalNAc
Method in brief: as §1

Kdn(a2-3)Gal(b1-3)GlcNAc = target: Kdn(a2-3)Gal(b1-3)GlcNAc
Method in brief: as §1

Kdn(a2-3)Gal(b1-4)Glc = target: Kdn(a2-3)Gal(b1-4)Glc
Method in brief: as §1

Kdn(a2-3)Gal(b1-4)GlcNAc = target: Kdn(a2-3)Gal(b1-4)GlcNAc
Method in brief: as §1

[7] = target: Kdn(a2-3)Gal(b1-4)[Fuc(a1-3)]GlcNAc
Method in brief: as §1

Kdn(a2-6)Gal(b1-4)GlcNAc = target: Kdn(a2-6)Gal(b1-4)GlcNAc
Method in brief: as §1

[8] = target: Man(a1-2)Man(a1-2)Man(a1-3)Man
Method in brief: as §1

[9] = target: Man(a1-2)Man(a1-2)Man(a1-6)[Man(a1-3)]Man
Method in brief: as §1

Man(a1-2)Man(a1-3)Man = target: Man(a1-2)Man(a1-3)Man
Method in brief: as §1

[10] = target: Man(a1-2)Man(a1-3)[Man(a1-2)Man(a1-6)]Man
Method in brief: as §1

[11] = target: Man(a1-2)Man(a1-3)[Man(a1-2)Man(a1-6)]Man(a1-6)[Man(a1-2)Man(a1-2)Man(a1-3)]Man
Method in brief: as §1

[12] = target: Man(a1-2)Man(a1-3)[Man(a1-2)Man(a1-6)]Man(a1-6)[Man(a1-2)Man(a1-2)Man(a1-3)]Man(b1-4)GlcNAc(b1-4)GlcNAc
Method in brief: as §1

[13] = target: Man(a1-2)Man(a1-3)[Man(a1-6)]Man(a1-6)[Man(a1-2)Man(a1-3)]Man(b1-4)GlcNAc(b1-4)GlcNAc
Method in brief: as §1

[14] = target: Man(a1-2)Man(a1-6)[Man(a1-3)]Man(a1-6)[Man(a1-2)Man(a1-2)Man(a1-3)]Man
Method in brief: as §1

[15] = target: Man(a1-2)Man(a1-6)[Man(a1-3)]Man(a1-6)[Man(a1-2)Man(a1-2)Man(a1-3)]Man(b1-4)GlcNAc(b1-4)GlcNAc
Method in brief: as §1

Man(a1-3)[Man(a1-6)]Man = target: Man(a1-3)[Man(a1-6)]Man
Method in brief: as §1

[16] = target: Man(a1-3)[Man(a1-6)]Man(a1-6)[Man(a1-2)Man(a1-3)]Man(b1-4)GlcNAc(b1-4)GlcNAc
Method in brief: as §1

[17] = target: Man(a1-3)[Man(a1-6)]Man(a1-6)[Man(a1-3)]Man
Method in brief: as §1

[18] = target: Man(a1-3)[Man(a1-6)]Man(a1-6)[Man(a1-3)]Man(b1-4)GlcNAc(b1-4)GlcNAc
Method in brief: as §1

[19] = target: Man(a1-3)[Man(a1-6)]Man(b1-4)GlcNAc(b1-4)GlcNAc
Method in brief: as §1

Man(a1-6)Man = target: Man(a1-6)Man
Method in brief: as §1

Man(b1-4)GlcNAc = target: Man(b1-4)GlcNAc
Method in brief: as §1

Neu5Ac(a2-3)Gal = target: Neu5Ac(a2-3)Gal
Method in brief: as §1

[20] = target: Neu5Ac(a2-3)Gal(b1-3)GalNAc
Method in brief: as §1

[21] = target: Neu5Ac(a2-3)Gal(b1-3)GalNAc(b1-3)Gal(a1-4)Gal(b1-4)Glc
Method in brief: as §1

[22] = target: Neu5Ac(a2-3)Gal(b1-3)GalNAc(b1-3)Gal(b1-4)GlcNAc
Method in brief: as §1

[23] = target: Neu5Ac(a2-3)Gal(b1-3)GalNAc(b1-4)[Neu5Ac(a2-3)]Gal(b1-4)Glc
Method in brief: as §1

[24] = target: Neu5Ac(a2-3)Gal(b1-3)GalNAc6S
Method in brief: as §1

[25] = target: Neu5Ac(a2-3)Gal(b1-3)GlcNAc
Method in brief: as §1

[26] = target: Neu5Ac(a2-3)Gal(b1-3)GlcNAc(b1-3)Gal(b1-3)GlcNAc
Method in brief: as §1

[27] = target: Neu5Ac(a2-3)Gal(b1-3)GlcNAc6S
Method in brief: as §1

[28] = target: Neu5Ac(a2-3)Gal(b1-3)[Fuc(a1-4)]GlcNAc
Method in brief: as §1

[29] = target: Neu5Ac(a2-3)Gal(b1-3)[Fuc(a1-4)]GlcNAc(b1-3)Gal(b1-3)[Fuc(a1-4)]GlcNAc
Method in brief: as §1

[30] = target: Neu5Ac(a2-3)Gal(b1-3)[Fuc(a1-4)]GlcNAc(b1-3)Gal(b1-4)[Fuc(a1-3)]GlcNAc
Method in brief: as §1

[31] = target: Neu5Ac(a2-3)Gal(b1-3)[Neu5Ac(a2-3)Gal(b1-4)]GlcNAc
Method in brief: as §1

[32] = target: Neu5Ac(a2-3)Gal(b1-3)[Neu5Ac(a2-6)]GalNAc
Method in brief: as §1

Neu5Ac(a2-3)Gal(b1-4)Glc = target: Neu5Ac(a2-3)Gal(b1-4)Glc
Method in brief: as §1

[33] = target: Neu5Ac(a2-3)Gal(b1-4)GlcNAc
Method in brief: as §1

[34] = target: Neu5Ac(a2-3)Gal(b1-4)GlcNAc(b1-2)Man(a1-3)[GlcNAc(b1-2)Man(b1-4)GlcNAc(b1-2)Man(a1-6)]Man(b1-4)GlcNAc(b1-4)GlcNAc
Method in brief: as §1

[35] = target: Neu5Ac(a2-3)Gal(b1-4)GlcNAc(b1-2)Man(a1-3)[Neu5Ac(a2-6)Gal(b1-4)GlcNAc(b1-2)Man(a1-6)]Man(b1-4)GlcNAc(b1-4)GlcNAc
Method in brief: as §1

[36] = target: Neu5Ac(a2-3)Gal(b1-4)GlcNAc(b1-3)Gal(b1-3)GlcNAc
Method in brief: as §1

[37] = target: Neu5Ac(a2-3)Gal(b1-4)GlcNAc(b1-3)Gal(b1-4)GlcNAc
Method in brief: as §1

[38] = target: Neu5Ac(a2-3)Gal(b1-4)GlcNAc(b1-3)Gal(b1-4)GlcNAc(b1-3)Gal(b1-4)GlcNAc
Method in brief: as §1

[39] = target: Neu5Ac(a2-3)Gal(b1-4)GlcNAc(b1-3)Gal(b1-4)[Fuc(a1-3)]GlcNAc
Method in brief: as §1

[40] = target: Neu5Ac(a2-3)Gal(b1-4)GlcNAc(b1-3)GalNAc
Method in brief: as §1

[41] = target: Neu5Ac(a2-3)Gal(b1-4)GlcNAc(b1-6)[Gal(b1-3)]GalNAc
Method in brief: as §1

[42] = target: Neu5Ac(a2-3)Gal(b1-4)GlcNAc(b1-6)[Neu5Ac(a2-3)Gal(b1-3)]GalNAc
Method in brief: as §1

[43] = target: Neu5Ac(a2-3)Gal(b1-4)GlcNAc6S
Method in brief: as §1

[44] = target: Neu5Ac(a2-3)Gal(b1-4)[Fuc(a1-3)]GlcNAc
Method in brief: as §1

[45] = target: Neu5Ac(a2-3)Gal(b1-4)[Fuc(a1-3)]GlcNAc(b1-3)Gal
Method in brief: as §1

[46] = target: Neu5Ac(a2-3)Gal(b1-4)[Fuc(a1-3)]GlcNAc(b1-3)Gal(b1-4)GlcNAc
Method in brief: as §1

B1: Sialidase (Vibrio cholerae), P37060 (protein)
chain: GAMALFDYNATGDTEFDSPAKQGWMQDNTNNGSGVLTNADGMPAWLVQGIGGRAQWTYSLSTNQHAQASSFGWRMTTEMKVLSGGMITNYYANGTQRVLPIISLDSSGNLVVEFEGQTGRTVLATGTAATEYHKFELVFLPGSNPSASFYFDGKLIRDNIQPTASKQNMIVWGNGSSNTDGVAAYRDIKFEIQGDALNGSMALFDYNATGDTEFDSPAKQGWMQDNTNNGSGVLTNADGMPAWLVQGIGGRAQWTYSLSTNQHAQASSFGWRMTTEMKVLSGGMITNYYANGTQRVLPIISLDSSGNLVVEFEGQTGRTVLATGTAATEYHKFELVFLPGSNPSASFYFDGKLIRDNIQPTASKQNMIVWGNGSSNTDGVAAYRDIKFEIQGDLQALGMALFDYNATGDTEFDSPAKQGWMQDNTNNGSGVLTNADGMPAWLVQGIGGRAQWTYSLSTNQHAQASSFGWRMTTEMKVLSGGMITNYYANGTQRVLPIISLDSSGNLVVEFEGQTGRTVLATGTAATEYHKFELVFLPGSNPSASFYFDGKLIRDNIQPTASKQNMIVWGNGSSNTDGVAAYRDIKFEIQGD
GlcNAc(b1-4)GlcNAc
  glycan array binding signal (z-score): -0.452
[1]
  glycan array binding signal (z-score): -0.652
[2]
  glycan array binding signal (z-score): -0.605
[3]
  glycan array binding signal (z-score): -0.662
[4]
  glycan array binding signal (z-score): -0.547
[5]
  glycan array binding signal (z-score): -0.492
GlcNAc(b1-6)GalNAc
  glycan array binding signal (z-score): -0.648
GlcNAc3Prop(b1-4)GlcNAc
  glycan array binding signal (z-score): -0.102
[6]
  glycan array binding signal (z-score): -0.434
Kdn(a2-3)Gal(b1-3)GalNAc
  glycan array binding signal (z-score): -0.286
Kdn(a2-3)Gal(b1-3)GlcNAc
  glycan array binding signal (z-score): -0.571
Kdn(a2-3)Gal(b1-4)Glc
  glycan array binding signal (z-score): -0.108
Kdn(a2-3)Gal(b1-4)GlcNAc
  glycan array binding signal (z-score): -0.198
[7]
  glycan array binding signal (z-score): -0.064
Kdn(a2-6)Gal(b1-4)GlcNAc
  glycan array binding signal (z-score): -0.384
[8]
  glycan array binding signal (z-score): -0.515
[9]
  glycan array binding signal (z-score): -0.609
Man(a1-2)Man(a1-3)Man
  glycan array binding signal (z-score): -0.527
[10]
  glycan array binding signal (z-score): -0.369
[11]
  glycan array binding signal (z-score): -0.629
[12]
  glycan array binding signal (z-score): 0.193
[13]
  glycan array binding signal (z-score): -0.076
[14]
  glycan array binding signal (z-score): -0.524
[15]
  glycan array binding signal (z-score): -0.344
Man(a1-3)[Man(a1-6)]Man
  glycan array binding signal (z-score): -0.644
[16]
  glycan array binding signal (z-score): -0.516
[17]
  glycan array binding signal (z-score): -0.625
[18]
  glycan array binding signal (z-score): -0.231
[19]
  glycan array binding signal (z-score): -0.547
Man(a1-6)Man
  glycan array binding signal (z-score): -0.099
Man(b1-4)GlcNAc
  glycan array binding signal (z-score): -0.608
Neu5Ac(a2-3)Gal
  glycan array binding signal (z-score): 0.621
[20]
  glycan array binding signal (z-score): 1.15
[21]
  glycan array binding signal (z-score): -0.275
[22]
  glycan array binding signal (z-score): -0.191
[23]
  glycan array binding signal (z-score): 1.52
[24]
  glycan array binding signal (z-score): 2.17
[25]
  glycan array binding signal (z-score): 1.47
[26]
  glycan array binding signal (z-score): -0.379
[27]
  glycan array binding signal (z-score): 2.64
[28]
  glycan array binding signal (z-score): 0.801
[29]
  glycan array binding signal (z-score): 5.53
[30]
  glycan array binding signal (z-score): 1.51
[31]
  glycan array binding signal (z-score): 1.34
[32]
  glycan array binding signal (z-score): 2.8
Neu5Ac(a2-3)Gal(b1-4)Glc
  glycan array binding signal (z-score): 1.6
[33]
  glycan array binding signal (z-score): -0.315
[34]
  glycan array binding signal (z-score): -0.457
[35]
  glycan array binding signal (z-score): 6.62
[36]
  glycan array binding signal (z-score): -0.398
[37]
  glycan array binding signal (z-score): 4.64
[38]
  glycan array binding signal (z-score): 0.256
[39]
  glycan array binding signal (z-score): 0.579
[40]
  glycan array binding signal (z-score): -0.105
[41]
  glycan array binding signal (z-score): -0.143
[42]
  glycan array binding signal (z-score): 0.011
[43]
  glycan array binding signal (z-score): 2.73
[44]
  glycan array binding signal (z-score): 1.13
[45]
  glycan array binding signal (z-score): -0.59
[46]
  glycan array binding signal (z-score): 1.45
